From PubChem BioAssay (Tox21)
The inconclusive results got no clear call from the source; some entries with a clear call stand among them for comparison. Potencies of inconclusive entries are doubtful fits and often do not repeat. Active and inactive are the calls of the source. Unless noted, calls come from the whole dose curve; as a rule, active = well fitted activation curve with a large enough effect in the repeat runs; inconclusive = weak or mixed curves; inactive = no such curve, though single readings can be large or run the other way.
% is set by controls: 0 for no effect and ±100 for the full control effect; potency is the fitted concentration of half-maximal effect; tags give direction and shape of the fitted curve or compound fluorescence and quenching.

These molecules were tested against Aryl hydrocarbon receptor (Homo sapiens) (UniProt P35869) (assay: qHTS assay to identify small molecule that activate the aryl hydrocarbon receptor (AhR) signaling pathway (AID 743085; note: nearly all actives have a fitted effect of over 15% in size;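 for activation: HG2L7.5c1 human HepG2 liver cells with stably integrated DRE-driven firefly reporter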)). Settings: HepG2 AhR-luc (HG2L7.5c1), luciferase, 24 h; series mostly up to 70.3 µM.
Chain of UniProt P35869 (P35869 whole entry, looked up): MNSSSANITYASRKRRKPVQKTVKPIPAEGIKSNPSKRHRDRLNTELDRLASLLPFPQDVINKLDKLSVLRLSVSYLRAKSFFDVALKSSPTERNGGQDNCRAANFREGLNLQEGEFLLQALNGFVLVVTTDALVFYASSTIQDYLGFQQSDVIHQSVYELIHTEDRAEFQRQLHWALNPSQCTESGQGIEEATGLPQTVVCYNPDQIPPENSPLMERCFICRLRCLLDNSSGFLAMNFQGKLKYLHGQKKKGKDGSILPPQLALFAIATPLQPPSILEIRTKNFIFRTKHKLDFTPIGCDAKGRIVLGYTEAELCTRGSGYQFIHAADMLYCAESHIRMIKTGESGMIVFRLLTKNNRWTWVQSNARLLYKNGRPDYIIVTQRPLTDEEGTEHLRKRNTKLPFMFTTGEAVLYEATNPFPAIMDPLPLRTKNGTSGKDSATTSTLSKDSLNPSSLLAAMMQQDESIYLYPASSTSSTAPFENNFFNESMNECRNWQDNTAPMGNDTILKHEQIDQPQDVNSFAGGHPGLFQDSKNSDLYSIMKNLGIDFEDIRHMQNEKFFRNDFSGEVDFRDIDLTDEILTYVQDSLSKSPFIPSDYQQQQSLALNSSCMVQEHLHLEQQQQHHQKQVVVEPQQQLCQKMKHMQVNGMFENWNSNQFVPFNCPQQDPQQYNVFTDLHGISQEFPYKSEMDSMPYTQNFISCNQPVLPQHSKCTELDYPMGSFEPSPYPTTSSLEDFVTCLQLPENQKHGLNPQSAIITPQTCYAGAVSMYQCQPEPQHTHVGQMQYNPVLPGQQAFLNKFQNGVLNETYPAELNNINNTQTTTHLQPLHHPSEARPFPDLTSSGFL
Method in brief: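 Luminescence read-out: ONE-Glo reagent, 30 min at room temperature, in HG2L7.5c1 HepG2 reporter cells treated 24 h at 37C. Viability was measured beforehand by CellTiter-Fluor fluorescence after 30 min at 37C.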
For `O=NN1CCNCC1`, the Potency was “inactive”.
`N#C/C(N)=C(/N)C#N` was tested, and the Potency was inconclusive: 59.3 µM [activator, partial curve].
For `Oc1ccc(C(=C(Cl)Cl)c2ccc(O)cc2)cc1`, the Potency was inconclusive: 61 µM [activator, partial curve, poor fit].
With `CC[C@@H](CO)NC(=O)[C@@H]1C=C2c3cccc4c3c(cn4C)C[C@H]2N(C)C1` the Potency was inconclusive: 7.5 µM [activator, full curve, poor fit].
For `CSC(=O)c1c(C(F)F)nc(C(F)(F)F)c(C(=O)SC)c1CC(C)C`, the Potency was inconclusive: 76.5 µM [activator, partial curve, poor fit].
With `CC(O)(CS(=O)(=O)c1ccc(F)cc1)C(=O)Nc1ccc(C#N)c(C(F)(F)F)c1` (stereo not given) the Potency was inconclusive: 29.8 µM [activator, single point].
In the case of `O=C(O)CCCCCCNC1c2ccccc2CCc2ccccc21`, the Potency is reported as inconclusive: 13.3 µM [activator, partial curve].

These molecules were tested against Peroxisome proliferator-activated receptor gamma (Homo sapiens) (UniProt P37231) (assay: qHTS assay to identify small molecule agonists of the peroxisome proliferator-activated receptor gamma (PPARg) signaling pathway (AID 743094; active = well fitted activation curve with a large enough effect in the signal ratio in the repeat runs, not every such curve was filed as active; inconclusive = weak or mixed curves, or effect the other way; inactive = no such curve, though single readings can be large or run the other way; the % refers to the signal ratio)). Settings: HEK293H PPARg-UAS-bla, beta-lactamase FRET ratio, 17 h; activation: at 57 µM (top of the series) unless noted.
Chain of UniProt P37231 (P37231 whole entry, looked up): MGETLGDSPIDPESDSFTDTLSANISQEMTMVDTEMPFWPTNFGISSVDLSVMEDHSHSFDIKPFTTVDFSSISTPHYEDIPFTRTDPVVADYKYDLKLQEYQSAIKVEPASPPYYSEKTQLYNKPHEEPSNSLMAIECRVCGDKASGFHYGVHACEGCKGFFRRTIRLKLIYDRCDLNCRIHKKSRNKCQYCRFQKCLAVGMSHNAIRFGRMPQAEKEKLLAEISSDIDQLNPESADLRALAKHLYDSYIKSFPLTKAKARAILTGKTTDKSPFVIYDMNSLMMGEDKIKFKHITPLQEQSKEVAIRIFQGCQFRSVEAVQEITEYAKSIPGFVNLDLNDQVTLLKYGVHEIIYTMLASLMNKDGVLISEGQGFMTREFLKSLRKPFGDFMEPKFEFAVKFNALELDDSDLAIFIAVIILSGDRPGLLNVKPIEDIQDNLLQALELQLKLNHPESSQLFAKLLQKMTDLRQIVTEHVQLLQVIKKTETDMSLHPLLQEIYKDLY
Method in brief: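 Cells from the PPARg UAS-bla HEK293H line are plated and incubated 5 h at 37C. Compounds in DMSO are pinned in and left 17 h at 37C. LiveBLAzer B/G substrate is then added for 1 h at room temperature before fluorescence is measured.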
For `CCOP(=O)(OCC)Oc1cc(C)nc(C(C)C)n1`, the Potency was inconclusive: 7.81 µM [falling, partial curve, poor fit].
For `O=NN1CCNCC1`, the activation was inconclusive: -6.45% [at 78.9 µM].
`OCC1CO1` (stereo not given) was tested, and the Potency was “inactive”.
For `O=C(O)C(Br)CBr` (stereo not given), the Potency was inconclusive: 19.8 µM [activator, full curve].
With `C=CCc1ccc2c(c1)OCO2` the Potency was “inactive”.
In the case of `Oc1ccc(C(=C(Cl)Cl)c2ccc(O)cc2)cc1`, the activation is reported as inconclusive: -15.8%.
With `CC[C@@H](CO)NC(=O)[C@@H]1C=C2c3cccc4c3c(cn4C)C[C@H]2N(C)C1` the activation was inconclusive: 1.77%.
For `Oc1ccccc1Cl`, the Potency was “inactive”.
`O=C1C(Cl)C(CCl)CN1c1cccc(C(F)(F)F)c1` (stereo not given) was tested, and the Potency was “inactive”.
With `C#CCOC(C(=O)OCCN(C)C)(c1ccccc1)c1ccccc1` the activation was inconclusive: -4.61%.
For `COC(=O)C(C)Oc1ccc(Oc2ccc(Cl)cc2Cl)cc1` (stereo not given), the activation was inconclusive: 9.74%.
`CSC(=O)c1c(C(F)F)nc(C(F)(F)F)c(C(=O)SC)c1CC(C)C` was tested, and the Potency was inconclusive: 48.7 µM [falling, partial curve, poor fit].
With `CCC(Cl)[N+](=O)[O-]` (stereo not given) the Potency was “inactive”.
With `NC(=O)C(Cl)Cl` the activation was inconclusive: 2.15%.
For `C[C@]12C=CC(=O)C=C1CC[C@@H]1[C@@H]2CC[C@@]2(C)[C@H]1CC[C@]2(C)O`, the Potency was “inactive”.
With `CC(O)(CS(=O)(=O)c1ccc(F)cc1)C(=O)Nc1ccc(C#N)c(C(F)(F)F)c1` (stereo not given) the activation was inconclusive: -15.6%.
In the case of `Cc1c([N+](=O)[O-])cc2c(c1[N+](=O)[O-])C(C)(C)CC2(C)C`, the Potency is reported as “inactive”.
With `CCOc1cc(OP(=S)(OC)OC)nc(CC)n1` the Potency was “inactive”.
